Results as given in PubChem BioAssay AID1240 (Sanford-Burnham Center for Chemical Genomics, 2008).
Among all 50,000 compounds or so, about 800 (1.6%) showed an effect of 50% or more. Some of the results follow.

target: Bcl-2-like protein 10 (Homo sapiens) (UniProt Q9HD36); assay: Phenotype converters, Bcl-B/TR3 peptide binding displacement, primary biochemical FP (AID 1240); settings: GST-Bcl-B / FITC-TR3 peptide fluorescence polarization; stronger effect = higher value; compound at 3.75 mg/L;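 further: 0% = Bcl-B with tracer peptide and DMSO and 100% = tracer peptide lacking Bcl-B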
Sequence of UniProt Q9HD36 (Q9HD36 whole entry, looked up): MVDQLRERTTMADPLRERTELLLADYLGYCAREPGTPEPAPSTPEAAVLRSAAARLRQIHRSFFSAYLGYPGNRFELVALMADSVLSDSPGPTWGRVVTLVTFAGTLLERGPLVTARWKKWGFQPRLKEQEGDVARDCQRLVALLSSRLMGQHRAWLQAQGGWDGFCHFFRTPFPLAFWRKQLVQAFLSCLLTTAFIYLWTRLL

| Structure (SMILES) | displacement [%] |
| --- | --- |
| CN1CCN(NC(=O)Nc2ccc(Cl)c(Cl)c2)CC1 | -6.1 |
| Cc1cc(C=C2C(=O)c3ccccc3C2=O)c(C)n1-c1cccc(Cl)c1 | 180 |
| COc1cccc(NC2=C(Cl)C(=O)N(Cc3ccccc3)C2=O)c1 | -4.4 |
| Cc1c(C#N)c(N=CN(C)C)c(C(=O)c2ccc(Br)cc2)n1-c1ccc(Br)cc1 | -5.4 |
| Cc1cc(NC2CCCCC2)nc2ccccc12 | -3.4 |
| CCOC(=O)CCC(=O)Nc1cc(-c2cccc(C)c2)[nH]n1 | 9.9 |
| CCn1c2ccccc2c2cc(CN3CCN(Cc4cc(OC)ccc4O)CC3)ccc21 | 18.2 |
| COc1ccc(NC(=O)CC2(c3ccc(OC)cc3)C(=O)c3ccccc3C2=O)cc1 | -6.2 |
| C=CCn1c2ccccc2c2nnc(SCC)nc21 | -4.5 |
| COc1ccc(/C=C2\SC(=Nc3ccc(O)cc3)NC2=O)cc1OC | -6.3 |
| Nc1nc(NCCCN2CCOCC2)cc(-c2ccccc2)n1 | -6.1 |
| O=[N+]([O-])c1cc(-n2ncnc2-c2ccc(Br)cc2)ccc1Cl | -7.7 |
| Cc1ccccc1N1OC2C(=O)N(c3ccc(F)cc3)C(=O)C2C1c1ccccc1 (configuration not stated) | -3.8 |
| c1ccc(Nc2nnc(CSc3nc4ccccc4s3)s2)cc1 | 12.8 |
| O=C(c1cc2n(n1)C(C(F)(F)F)CC(c1ccc(Cl)cc1)N2)N1CCN(c2ccccc2)CC1 (configuration not stated) | 9.6 |
| CN1CCN(c2ccc([N+](=O)[O-])c(NCc3ccc(Cl)cc3)c2)CC1 | 7.1 |
| Fc1ccc(OCCOCCOc2ncnc3ccccc23)cc1 | 0.7 |
| CC12CS(=O)(=O)CC1SC(=S)N2c1ccccc1 (configuration not stated) | -3.3 |
| CSc1nnc(-c2ccco2)n1-c1ccccc1 | -11.4 |
| CCOc1ccc(C(=O)Nc2ccc(OC(F)(F)F)cc2)cc1Br | -7.7 |
| Cc1cccc(OCC(=O)NCC(=O)N/N=C/c2cccs2)c1 | 3.9 |
| N#C/C(=C\c1ccc(-c2cccc(C(F)(F)F)c2)o1)C(=O)O | -0.2 |
| Cc1ccccc1NCC(=O)N/N=C\c1cccnc1 | 5.7 |
| O=C1NC(=S)NC(=O)C1=Cc1cc(Cl)c(O)c(Cl)c1 | 5.5 |

| Structure (SMILES) | displacement [%] |
| --- | --- |
| O=C(CN(c1ccc(Cl)cc1Cl)S(=O)(=O)c1ccccc1)Nc1ccc(F)cc1 | -8.1 |
| CCOc1ccc(C(=O)Nc2ccc(OC)c(Cl)c2)cc1 | 12.1 |
| O=c1[nH]c(=O)n(-c2ccc(F)cc2)c(O)c1C=Nc1ccc2c(c1)OCO2 | -15.2 |
| Oc1ccc(Nc2nc3ccccc3nc2Nc2ccc(O)cc2)cc1 | -3.5 |
| COc1ccc(/C=C2\C(=O)NN(c3ccc(Cl)c(Cl)c3)C2=O)cc1OC | -13.2 |
| COc1ccc(-c2c(C#N)c(N)n3c(nc4ccccc43)c2C#N)cc1OC | 3 |
| CCSc1nc2ccccc2n1C(=O)/C=C/c1cccs1 | 0.6 |
| CN(C)c1ccc(/C=C2\N=C(c3cccc(Cl)c3)OC2=O)cc1 | -17.7 |
| CC(NC(=O)C(F)(Cl)C(F)(F)F)c1ccccc1 (configuration not stated) | -5.4 |
| CCN(CC)CCCCOc1ccccc1F | 13.2 |
| Cc1cc(Cl)ccc1NC(=O)C1CCCN1C(=O)OC(C)(C)C (configuration not stated) | -4.6 |
| CCOc1ccc(C2/C(=C(\O)c3ccccc3)C(=O)C(=O)N2c2cccnc2)cc1 (configuration not stated) | 0.2 |
| COc1ccc(-c2ccc(/C=C3\C(=O)NC(=O)N(c4ccc(Cl)cc4)C3=O)o2)c([N+](=O)[O-])c1 | 47 |
| COc1cc2c(cc1OC)C(SC)=NC(C)(C)C2 | 6.6 |
| COc1ccccc1-c1coc2cc(OCc3ccccc3)ccc2c1=O | 8.6 |
| O=C(c1ccccc1)N1CCN(S(=O)(=O)c2ccccc2)C1 | 7.4 |
| COc1ccc(-c2nc(-c3ccc(NC(C)=O)cc3)[nH]c2-c2ccc(OC)cc2)cc1 | 8 |
| O=C(Nc1ccccc1C(=O)c1ccccc1)c1ccccc1Br | -10.1 |
| O=C(c1cc2nc(-c3ccccc3)cc(C(F)(F)F)n2n1)N1CCOCC1 | 6.8 |
| CC(=O)c1cc(Cn2cnc([N+](=O)[O-])n2)cs1 | -1.9 |
| COc1ccc(/C=C2\SC(=O)N(CC(=O)Nc3ccc(C)cc3C)C2=O)cc1 | 7.5 |
| Cc1cc(/C=C2\C(=O)NC(=O)N(c3ccc4c(c3)OCO4)C2=O)c(C)n1-c1ccccc1 | 16.1 |
| Clc1ccc(Cl)c(-c2nnc(-c3ccc4c(c3)OCO4)o2)c1 | -7.8 |
| COC(=O)c1c(F)c(F)c(N2CCOCC2)c(F)c1F | 4.4 |

| Structure (SMILES) | displacement [%] |
| --- | --- |
| Oc1ccc(C2NN=C(c3ccccc3)S2)cc1 (configuration not stated) | -2.8 |
| COC(=O)C1=C(C)N(c2ccc(C)cc2)/C(=C\c2sccc2C)C1=O | 11.6 |
| COc1ccc2c(c1OC)C(=O)N(c1cccc(C(F)(F)F)c1)C2 | -19.7 |
| O=C1c2ccccc2C(=O)N1c1nc(-c2ccccc2)cs1 | -7 |
| CN(C)c1cc(N/N=C/c2ccccc2O)nc(N(C)C)n1 | -4 |
| Cc1ccc(Cc2cnc(NC(=O)c3ccccc3Cl)s2)cc1 | 9.7 |
| O=S(c1ccc2ccccc2c1)N1CCOCC1 (configuration not stated) | -2.2 |
| Oc1oc(-c2ccccc2)cc1N=Nc1ccccc1 | -0.2 |
| CN(C)S(=O)(=O)NCCCNc1ccc([N+](=O)[O-])cc1 | -1.9 |
| COc1cc(/C=C2\C=C(c3ccc(Cl)cc3)OC2=O)cc(Br)c1OC(C)=O | -19.7 |
| O=C(Nc1ccc([N+](=O)[O-])cc1)c1ccccc1C(F)(F)F | -10.2 |
| O=C1C(=O)N(c2cccc(Cl)c2)C(c2cccc([N+](=O)[O-])c2)/C1=C(\O)c1ccccc1 (configuration not stated) | 4.3 |
| CCCC1=NN(c2ccc([N+](=O)[O-])cc2)C(=O)/C1=C\N(C)C | -5.5 |
| O=C(COc1ccc(Cl)cc1)Nc1ccc(Br)c(Cl)c1 | 14.1 |
| COC(=O)c1c(C(F)(F)F)cc(-c2ccccc2)nc1C | 8.8 |
| CCC(C(=O)Nc1ccc(Br)cc1)c1ccccc1 (configuration not stated) | 9.1 |
| O=C(O)/C(S)=C\c1ccc(Cl)cc1 | 11.1 |
| Cc1ccc(-c2nc3c(C)cccn3c2NC(=O)c2ccccc2)cc1 | 7.3 |
| CCOc1ccc(C(=O)Nc2ccc(C)cc2[N+](=O)[O-])cc1Cl | 11.7 |
| Cc1c(N2C(=O)CSC2c2ccccc2)c(=O)n(-c2ccccc2)n1C (configuration not stated) | -4.2 |
| COc1cccc(NC(=O)CN(c2ccc(Oc3ccccc3)cc2)S(C)(=O)=O)c1 | -10.4 |
| Cc1nnc(N/N=C/c2cccc(F)c2)[nH]c1=O | 2.2 |
| Cc1cc2ncn(/N=C\c3ccccc3)c2cc1C | 5.9 |
| Cc1ccc2nc(-c3ccc(F)cc3)oc(=O)c2c1 | -7 |
